Reference: patent US20250051434A1 (Merck Sharp & Dohme, published 2025)

Biological target: human IL-12 receptor (IL-12R) (human, UniProt P42701 24-662; Q99665 24-862)
Experiment: cell-based or functional assay

Binder	Mean Fold Reduction (potency vs IL-12 WT by EC50; HEK-Blue IL-12 STAT4/SEAP reporter) [fold]
IL-12-Fc-15 (Fc fusion) chain 1: TPDPGMFPCLHHSQNLLRAVSNMLQKARQTLEFYPCTSEEIDHEDITKDKTSTVEACLPLELTKNESCLNSRETSFITNGSCLASRKTSFMMALCLSSIYEDLKMYQVEFKTMNAKLLMDPKRQIFLDQNMLAVIDELMQALNFNSETVPQKSSLEEPRFYKTKIKLCILLHAFRIRAVTIDRVMSYLNASGGGGSGGGGSGGGGS[skipping human IgG1 Fc with L234A L235A D265S S354C T366W (EU numbers)] chain 2: IWELKKDVYVVELDWYPDAPGEMVVLTCDTPEEDGITWTLDQSSEVLGSGKTLTIQVKEFGDAGQYTCHKGGEVLSHSLLLLHKKEDGIWSTDILKDQKEPKNKTFLRCEAKNYSGRFTCWWLTTISTDLTFSVKSSRGSSDPQGVTCGAATLSAERVRGDNKEYEYSVECQEDSACPAAEESLPIEVMVDAVHKLKYENYTSSFFIRDIIKPDPPKNLQLKPLKNSRQVEVSWEYPDTWSTPHSYFSLTFCVQVQGKSKREKKDRVFTDKTSATVICRKNASISVRAQDRYYSSSWSEWASVPCSGGGGDKTHTCPPCPAPEAAGGPSVFLFPPKPKDTLMISRTPEVTCVVVSVSHEDPEVKFNWYVDGVEVHNAKTKPREEQYNSTYRVVSVLTVLHQDWLNGKEYKCKVSNKALPAPIEKTISKAKGQPREPQVCTLPPSRDELTKNQVSLSCAVKGFYPSDIAVEWESNGQPENNYKTTPPVLDSDGSFFLVSKLTVDKSRWQQGNVFSCSVMHEALHNHYTQKSLSLSPGK	4
IL-12-Fc-16 (Fc fusion) chain 1: TPDPGMFPCLHHSQNLLRAVSNMLQKARQTLEFYPCTSEEIDHEDITKDKTSTVEACLPLELTKNESCLNSRETSFITNGSCLASRKTSFMMALCLSSIYEDLKMYQVEFKTMNAKLLMDPKRQIFLDQNMLAVIDELMQALNFNSETVPQKSSLEEPYFYKTKIKLCILLHAFRIRAVTIDRVMSYLNASGGGGSGGGGSGGGGS[skipping human IgG1 Fc with L234A L235A D265S S354C T366W (EU numbers)] chain 2: IWELKKDVYVVELDWYPDAPGEMVVLTCDTPEEDGITWTLDQSSEVLGSGKTLTIQVKEFGDAGQYTCHKGGEVLSHSLLLLHKKEDGIWSTDILKDQKEPKNKTFLRCEAKNYSGRFTCWWLTTISTDLTFSVKSSRGSSDPQGVTCGAATLSAERVRGDNKEYEYSVECQEDSACPAAEESLPIEVMVDAVHKLKYENYTSSFFIRDIIKPDPPKNLQLKPLKNSRQVEVSWEYPDTWSTPHSYFSLTFCVQVQGKSKREKKDRVFTDKTSATVICRKNASISVRAQDRYYSSSWSEWASVPCSGGGGDKTHTCPPCPAPEAAGGPSVFLFPPKPKDTLMISRTPEVTCVVVSVSHEDPEVKFNWYVDGVEVHNAKTKPREEQYNSTYRVVSVLTVLHQDWLNGKEYKCKVSNKALPAPIEKTISKAKGQPREPQVCTLPPSRDELTKNQVSLSCAVKGFYPSDIAVEWESNGQPENNYKTTPPVLDSDGSFFLVSKLTVDKSRWQQGNVFSCSVMHEALHNHYTQKSLSLSPGK	2
IL-12-Fc-17 (Fc fusion) chain 1: TPDPGMFPCLHHSQNLLRAVSNMLQKARQTLEFYPCTSEEIDHEDITKDKTSTVEACLPLELTKNESCLNSRETSFITNGSCLASRKTSFMMALCLSSIYEDLKMYQVEFKTMNAKLLMDPKRQIFLDQNMLAVIDELMQALNFNSETVPQKSSLEEPFFYKTKIKLCILLHAFRIRAVTIDRVMSYLNASGGGGSGGGGSGGGGS[skipping human IgG1 Fc with L234A L235A D265S S354C T366W (EU numbers)] chain 2: IWELKKDVYVVELDWYPDAPGEMVVLTCDTPEEDGITWTLDQSSEVLGSGKTLTIQVKEFGDAGQYTCHKGGEVLSHSLLLLHKKEDGIWSTDILKDQKEPKNKTFLRCEAKNYSGRFTCWWLTTISTDLTFSVKSSRGSSDPQGVTCGAATLSAERVRGDNKEYEYSVECQEDSACPAAEESLPIEVMVDAVHKLKYENYTSSFFIRDIIKPDPPKNLQLKPLKNSRQVEVSWEYPDTWSTPHSYFSLTFCVQVQGKSKREKKDRVFTDKTSATVICRKNASISVRAQDRYYSSSWSEWASVPCSGGGGDKTHTCPPCPAPEAAGGPSVFLFPPKPKDTLMISRTPEVTCVVVSVSHEDPEVKFNWYVDGVEVHNAKTKPREEQYNSTYRVVSVLTVLHQDWLNGKEYKCKVSNKALPAPIEKTISKAKGQPREPQVCTLPPSRDELTKNQVSLSCAVKGFYPSDIAVEWESNGQPENNYKTTPPVLDSDGSFFLVSKLTVDKSRWQQGNVFSCSVMHEALHNHYTQKSLSLSPGK	3
IL-12-Fc-20 (Fc fusion) chain 1: TPDPGMFPCLHHSQNLLRAVSNMLQKARQTLEFYPCTSEEIDHEDITKDKTSTVEACLPLELTKNESCLNSRETSFITNGSCLASRKTSFMMALCLSSIYEDLKMYQVEFKTMNAKLLMDPKRQIFLDQNMLAVIDELMQALNFNSETVPQKSSLEEPDFAKTKIKLCILLHAFRIRAVTIDRVMSYLNASGGGGSGGGGSGGGGS[skipping human IgG1 Fc with L234A L235A D265S S354C T366W (EU numbers)] chain 2: IWELKKDVYVVELDWYPDAPGEMVVLTCDTPEEDGITWTLDQSSEVLGSGKTLTIQVKEFGDAGQYTCHKGGEVLSHSLLLLHKKEDGIWSTDILKDQKEPKNKTFLRCEAKNYSGRFTCWWLTTISTDLTFSVKSSRGSSDPQGVTCGAATLSAERVRGDNKEYEYSVECQEDSACPAAEESLPIEVMVDAVHKLKYENYTSSFFIRDIIKPDPPKNLQLKPLKNSRQVEVSWEYPDTWSTPHSYFSLTFCVQVQGKSKREKKDRVFTDKTSATVICRKNASISVRAQDRYYSSSWSEWASVPCSGGGGDKTHTCPPCPAPEAAGGPSVFLFPPKPKDTLMISRTPEVTCVVVSVSHEDPEVKFNWYVDGVEVHNAKTKPREEQYNSTYRVVSVLTVLHQDWLNGKEYKCKVSNKALPAPIEKTISKAKGQPREPQVCTLPPSRDELTKNQVSLSCAVKGFYPSDIAVEWESNGQPENNYKTTPPVLDSDGSFFLVSKLTVDKSRWQQGNVFSCSVMHEALHNHYTQKSLSLSPGK	5
IL-12-Fc-21 (Fc fusion) chain 1: TPDPGMFPCLHHSQNLLRAVSNMLQKARQTLEFYPCTSEEIDHEDITKDKTSTVEACLPLELTKNESCLNSRETSFITNGSCLASRKTSFMMALCLSSIYEDLKMYQVEFKTMNAKLLMDPKRQIFLDQNMLAVIDELMQALNFNSETVPQKSSLEEPDFWKTKIKLCILLHAFRIRAVTIDRVMSYLNASGGGGSGGGGSGGGGS[skipping human IgG1 Fc with L234A L235A D265S S354C T366W (EU numbers)] chain 2: IWELKKDVYVVELDWYPDAPGEMVVLTCDTPEEDGITWTLDQSSEVLGSGKTLTIQVKEFGDAGQYTCHKGGEVLSHSLLLLHKKEDGIWSTDILKDQKEPKNKTFLRCEAKNYSGRFTCWWLTTISTDLTFSVKSSRGSSDPQGVTCGAATLSAERVRGDNKEYEYSVECQEDSACPAAEESLPIEVMVDAVHKLKYENYTSSFFIRDIIKPDPPKNLQLKPLKNSRQVEVSWEYPDTWSTPHSYFSLTFCVQVQGKSKREKKDRVFTDKTSATVICRKNASISVRAQDRYYSSSWSEWASVPCSGGGGDKTHTCPPCPAPEAAGGPSVFLFPPKPKDTLMISRTPEVTCVVVSVSHEDPEVKFNWYVDGVEVHNAKTKPREEQYNSTYRVVSVLTVLHQDWLNGKEYKCKVSNKALPAPIEKTISKAKGQPREPQVCTLPPSRDELTKNQVSLSCAVKGFYPSDIAVEWESNGQPENNYKTTPPVLDSDGSFFLVSKLTVDKSRWQQGNVFSCSVMHEALHNHYTQKSLSLSPGK	2
IL-12-Fc-22 (Fc fusion) chain 1: TPDPGMFPCLHHSQNLLRAVSNMLQKARQTLEFYPCTSEEIDHEDITKDKTSTVEACLPLELTKNESCLNSRETSFITNGSCLASRKTSFMMALCLSSIYEDLKMYQVEFKTMNAKLLMDPKRQIFLDQNMLAVIDELMQALNFNSETVPQKSSLEEPDFYETKIKLCILLHAFRIRAVTIDRVMSYLNASGGGGSGGGGSGGGGS[skipping human IgG1 Fc with L234A L235A D265S S354C T366W (EU numbers)] chain 2: IWELKKDVYVVELDWYPDAPGEMVVLTCDTPEEDGITWTLDQSSEVLGSGKTLTIQVKEFGDAGQYTCHKGGEVLSHSLLLLHKKEDGIWSTDILKDQKEPKNKTFLRCEAKNYSGRFTCWWLTTISTDLTFSVKSSRGSSDPQGVTCGAATLSAERVRGDNKEYEYSVECQEDSACPAAEESLPIEVMVDAVHKLKYENYTSSFFIRDIIKPDPPKNLQLKPLKNSRQVEVSWEYPDTWSTPHSYFSLTFCVQVQGKSKREKKDRVFTDKTSATVICRKNASISVRAQDRYYSSSWSEWASVPCSGGGGDKTHTCPPCPAPEAAGGPSVFLFPPKPKDTLMISRTPEVTCVVVSVSHEDPEVKFNWYVDGVEVHNAKTKPREEQYNSTYRVVSVLTVLHQDWLNGKEYKCKVSNKALPAPIEKTISKAKGQPREPQVCTLPPSRDELTKNQVSLSCAVKGFYPSDIAVEWESNGQPENNYKTTPPVLDSDGSFFLVSKLTVDKSRWQQGNVFSCSVMHEALHNHYTQKSLSLSPGK	2
IL-12-Fc-23 (Fc fusion) chain 1: TPDPGMFPCLHHSQNLLRAVSNMLQKARQTLEFYPCTSEEIDHEDITKDKTSTVEACLPLELTKNESCLNSRETSFITNGSCLASRKTSFMMALCLSSIYEDLKMYQVEFKTMNAKLLMDPKRQIFLDQNMLAVIDELMQALNFNSETVPQKSSLEEPDFYDTKIKLCILLHAFRIRAVTIDRVMSYLNASGGGGSGGGGSGGGGS[skipping human IgG1 Fc with L234A L235A D265S S354C T366W (EU numbers)] chain 2: IWELKKDVYVVELDWYPDAPGEMVVLTCDTPEEDGITWTLDQSSEVLGSGKTLTIQVKEFGDAGQYTCHKGGEVLSHSLLLLHKKEDGIWSTDILKDQKEPKNKTFLRCEAKNYSGRFTCWWLTTISTDLTFSVKSSRGSSDPQGVTCGAATLSAERVRGDNKEYEYSVECQEDSACPAAEESLPIEVMVDAVHKLKYENYTSSFFIRDIIKPDPPKNLQLKPLKNSRQVEVSWEYPDTWSTPHSYFSLTFCVQVQGKSKREKKDRVFTDKTSATVICRKNASISVRAQDRYYSSSWSEWASVPCSGGGGDKTHTCPPCPAPEAAGGPSVFLFPPKPKDTLMISRTPEVTCVVVSVSHEDPEVKFNWYVDGVEVHNAKTKPREEQYNSTYRVVSVLTVLHQDWLNGKEYKCKVSNKALPAPIEKTISKAKGQPREPQVCTLPPSRDELTKNQVSLSCAVKGFYPSDIAVEWESNGQPENNYKTTPPVLDSDGSFFLVSKLTVDKSRWQQGNVFSCSVMHEALHNHYTQKSLSLSPGK	1
